Data as given in the antibiotic and cytotoxicity screens of Wong et al. (2023).
Some of the results follow.

What was measured:
[1] = test system: HSkMC (human skeletal muscle cells); test: cytotoxicity call (relative viability < 0.9); settings: 10 µM
[2] = test system: HepG2; test: cytotoxicity call (relative viability < 0.9); settings: 10 µM
[3] = test system: S. aureus RN4220; test: growth inhibition call (relative growth <= 0.2); settings: 50 µM

COc1ccccc1CNC(=O)C[C@H]1CC[C@H]2[C@@H](COC[C@@H](O)CN2C(=O)Nc2ccc(F)cc2)O1
inactive: cytotoxicity call [1] | cytotoxicity call [2] | growth inhibition call [3]

CO[C@H]1CN(C)C(=O)c2cc(NC(=O)C3CC3)ccc2OC[C@@H](C)N(C(=O)CN2CCOCC2)C[C@H]1C
inactive: cytotoxicity call [1] | cytotoxicity call [2] | growth inhibition call [3]

C[C@H](CO)N1C[C@H](C)[C@@H](CN(C)Cc2ccc(C(F)(F)F)cc2)Oc2ccc(NS(C)(=O)=O)cc2C1=O
inactive: cytotoxicity call [1] | cytotoxicity call [2] | growth inhibition call [3]
